# Measurements from PubChem BioAssay AID624296 (National Center for Advancing Translational Sciences (NCATS), 2012).
# Among all 350,000 compounds or so, about 9,900 (2.8%) were called active. Inconclusive means that the source gave no clear call. Such entries were picked first, then a sample of the others. Calls come from the whole dose curve; as a rule, active = well fitted activation curve with a large enough effect; inconclusive = small, poorly fitted or top-dose-only effect; inactive = no such curve, though single readings can be large or run the other way. No potency is given beside an inconclusive call; the fits are too rough.
# Test: A quantitative high throughput screen for small molecules that induce DNA re-replication in MCF 10a normal breast cells. Note: nearly all actives have a fitted effect of over 50% in size.
# Conditions: MCF 10A DNA re-replication, Hoechst nuclear intensity, 48 h; series mostly up to 46.1 µM
# Potency is the fitted concentration of half-maximal effect; tags give direction and shape of the fitted curve.
row,SMILES,Potency
1,CC(CN1CCCC1)OC(=O)C(c1ccccc1)c1ccccc1 (configuration not stated),active: 0.58 µM
2,CC1=CCC(C(=O)O)C(C(=O)Nc2ccc(-c3nc4ccc(C)cc4s3)cc2)C1 (configuration not stated),"inconclusive [activator, single point]"
3,COC(=O)c1ccc(Oc2cc(C)nc(NCc3ccccc3)n2)cc1,"inconclusive [activator, partial curve]"
4,CN(CC(=O)Nc1cccc(F)c1)C(=O)c1ccc(N2CCCCC2)c([N+](=O)[O-])c1,"inconclusive [activator, single point]"
5,COc1ccc(-c2oc3ccc(N4CCOCC4)cc3c2C#CCO)cc1,active: 18.4 µM
6,CCC1CCc2c(sc(NC(=O)C3c4ccccc4Oc4ccccc43)c2C(N)=O)C1 (configuration not stated),"inconclusive [activator, full curve]"
7,CCC(C)C(NS(=O)(=O)c1ccc(C)cc1)C(=O)Oc1ccc2c3c(c(=O)oc2c1)CCC3 (configuration not stated),"inconclusive [activator, single point]"
8,CN(CCNC(=O)CCCOc1cc(=O)n(C)c2ccccc12)Cc1ccccc1,"inconclusive [activator, full curve, poor fit]"
9,COc1ccc(CNC(=O)C2CCCN(c3nc4ccccc4o3)C2)c(OC)c1 (configuration not stated),"inconclusive [activator, partial curve, poor fit]"
10,Cc1cc2cc(C)c3nnc(SCC(=O)NCc4ccc5c(c4)OCO5)n3c2cc1C,inactive
11,COc1ccc(-c2nc(CS(=O)CC(=O)NCc3ccc(Cl)cc3)c(C)o2)cc1 (configuration not stated),inactive
12,O=C(NCc1ccco1)c1ccc(CS(=O)(=O)Cc2ccc(Cl)cc2)o1,"inconclusive [activator, partial curve, poor fit]"
13,CCC1C/C(=C\c2cccnc2)C(=O)/C(=C/c2cccnc2)C1 (configuration not stated),"inconclusive [activator, full curve, poor fit]"
14,CC1CCN(C(=O)c2nc[nH]c2C(=O)N2CCC(C)CC2)CC1,"inconclusive [activator, partial curve, poor fit]"
15,NC(=O)c1ccccc1NC(=O)CSc1cn[nH]n1,"inconclusive [activator, single point]"
16,O=C(Nc1ccncc1)c1cn(-c2ccccc2)nc1-c1cccs1,"inconclusive [activator, single point]"
17,CCCCCCCCNS(=O)(=O)CCNCc1ccc(OC)cc1,"inconclusive [activator, full curve, poor fit]"
18,COc1ccc(/C=N\NC(=O)c2c(C)nc3ccc(Br)cn23)cc1,"inconclusive [activator, full curve, poor fit]"
19,Cc1cc(C)c(S(=O)(=O)Nc2ccc(O)c(Sc3ncn[nH]3)c2)c(C)c1,"inconclusive [activator, partial curve, poor fit]"
20,CC1(C)NC(=O)N(c2ccc([N+](=O)[O-])c(C(F)(F)F)c2)C1=O,inactive
21,CCN1CCN(CCNC(=O)c2ccc3c(c2)N(Cc2ccc(F)cc2)C(=O)/C(=C/c2ccccc2)S3)CC1,"inconclusive [activator, single point]"
22,O=C([C@H](Cc1ccccc1)NS(=O)(=O)c1ccc(Cl)cc1)N1CC[C@@]2(O)CCCC[C@H]2C1,"inconclusive [activator, partial curve, poor fit]"
23,O=C(Nc1ccc(N2CCOCC2)cc1)C1(c2ccc(Cl)cc2)CCC1,"inconclusive [activator, full curve, poor fit]"

row,SMILES,Potency
1,COC(=O)CNC(=O)COC(=O)/C=C/c1ccccc1[N+](=O)[O-],active: 5.8 µM
2,O=C1C=CC(=Nc2ccc(F)cc2)O1,active: 18.4 µM
3,Cc1cc(OCCCC(=O)Nc2cccc(-n3cnnn3)c2)ccc1Cl,inactive
4,CCCn1c(N2CCN(S(=O)(=O)Cc3ccccc3)CC2)nc2ccccc21,"inconclusive [activator, single point]"
5,O=C(CSc1nnc(-c2ccncc2)n1Cc1ccco1)c1ccc(Cl)cc1,"inconclusive [activator, single point]"
6,COc1ccc(C(=O)OCC(=O)Nc2cc(S(=O)(=O)N3CCOCC3)ccc2N2CCCC2)cc1,inactive
7,Nc1nc(CN2CCN(c3ccccn3)CC2)nc(Nc2ccc(F)cc2)n1,"inconclusive [activator, partial curve, poor fit]"
8,CCCCCCN(C(=O)CCCCCN1C(=O)NC(c2ccc([N+](=O)[O-])cc2)C(C(=O)OCc2ccccc2)=C1C)C(C(=O)NCCCC)C1CCCCC1 (configuration not stated),inactive
9,CN(C(=O)c1cccc(NC(=O)Cc2cccc(NC(=O)C3CCCN(C(=O)C4CCCC4)C3)c2)c1)C1CCC1 (configuration not stated),inactive
10,CCCCCCOc1ccc(OC(=O)c2ccncc2)cc1,active: 23.1 µM
11,Cc1ccc(-c2cc(=O)c3ccccc3[nH]2)cc1,active: 13 µM
12,Cc1ccc(S(=O)(=O)Oc2ccc(/C=N/NC(=O)c3ccncc3)cc2)cc1,inactive
13,CCOc1ccccc1N1CCN(c2nc(N)c(C#N)c(CC#N)c2C#N)CC1,"inconclusive [activator, partial curve, poor fit]"
14,CCOC(=O)C1CCN(C(=O)c2sc3ncnc(N4CCC(C)CC4)c3c2C)CC1,"inconclusive [activator, partial curve, poor fit]"
15,O=C(NCCN1CCCCC1)c1ccc(Oc2cc(Cl)cc(Cl)c2)o1,"inconclusive [activator, partial curve, poor fit]"
16,C=CCn1c(SCc2csc(C)n2)nc2scc(-c3ccc(C)o3)c2c1=O,"inconclusive [activator, single point]"
17,CCCCC(CCC(=O)Nc1cccc([N+](=O)[O-])c1)C(=O)O (configuration not stated),"inconclusive [activator, full curve, poor fit]"
18,O=C(Cn1nnc(-c2ccccc2)n1)N/N=C/c1ccc(-c2ccc(Cl)cc2)o1,"inconclusive [activator, partial curve, poor fit]"
19,COc1ccc(-c2noc(CCCOc3ccc(Cl)cc3Cl)n2)cc1,"inconclusive [activator, full curve, poor fit]"
20,CC1CN(c2cc(-c3ccccc3)c3ccccc3n2)CC(C)O1 (configuration not stated),inactive
21,O=C(NC(Cc1c[nH]c2ccccc12)C(=O)Nc1ccc(OC(F)(F)F)cc1)c1cccs1 (configuration not stated),"inconclusive [activator, full curve, poor fit]"
22,COc1ccc(NS(=O)(=O)c2c(C)[nH]c(C)c2C(=O)N2CCCCC2)cc1Cl,"inconclusive [activator, partial curve, poor fit]"
23,Cc1cccc(CS(=O)(=O)c2ncc(Cl)c(C(=O)Nc3c(C)cccc3C)n2)c1,"inconclusive [activator, partial curve, poor fit]"

row,SMILES,Potency
1,COc1ccc(C)cc1NC(=O)CO/N=C(\N)CC(=O)Nc1ccccc1OC,inactive
2,CCc1c(C)[nH]c(C(=O)OCc2ccccc2)c1C,"inconclusive [activator, single point]"
3,NCC[C@H](O)C(=O)N[C@@H]1C[C@H](N)[C@@H](O[C@H]2O[C@H](CN)CC[C@H]2N)[C@H](O)[C@H]1O[C@H]1O[C@H](CO)[C@@H](O)[C@H](N)[C@H]1O,inactive
4,CC1CCN(S(=O)(=O)c2cc3c4c(c2)CCN4C(=O)CC3)CC1,inactive
5,COc1cc(/C=C2/C(=O)CNC2=O)ccc1O,inactive
6,CCc1ccc(NC(=O)CN(N=Nc2nonc2C)c2nonc2C)cc1,inactive
7,CN(C)S(=O)(=O)c1ccc(Cl)c(C(=O)OCC(=O)NC(=O)c2cccn2C)c1,inactive
8,COc1ccc(S(=O)(=O)Nc2ccc(F)cc2F)cc1C(=O)N1CCOCC1,inactive
9,COc1ccc(S(=O)(=O)N2CCOCC2)cc1NC(=O)c1ccc(S(=O)(=O)N(C)c2ccccc2OC)cc1,inactive
10,O=C1CSC(=S)N1Nc1ccccc1,"inconclusive [activator, single point]"
11,O=C(CN1CC[n+]2c(-c3cccs3)csc21)c1ccc(Br)cc1,"inconclusive [activator, partial curve, poor fit]"
12,CCCCn1c(N)c(S(=O)(=O)c2ccc(C)cc2)c2nc3ccccc3nc21,active: 3.66 µM
13,O=S(=O)(Cc1ccccc1)Nc1ccc(S(=O)(=O)N2CCCC2)cc1,inactive
14,Cc1ccnc(NC(=O)c2ccc(OCC3CCCO3)cc2)c1 (configuration not stated),inactive
15,COc1ccc(NC(=O)CSc2nc3sc(C)c(C)c3c(=O)n2Cc2ccco2)cc1,active: 14.6 µM
16,COc1cc(CN2CCCC(C(=O)c3ccc4c5c(cccc35)CC4)C2)cc(OC)c1O (configuration not stated),active: 20.6 µM
17,N#Cc1cn(CC(=O)NCc2cccnc2)c2ccccc12,"inconclusive [activator, full curve, poor fit]"
18,CCOc1ccc(Br)cc1S(=O)(=O)Nc1ccc(Cl)c(S(=O)(=O)N(CC)c2ccccc2)c1,"inconclusive [activator, full curve, poor fit]"
19,CC(C)C(=O)N1CCN(c2nc(-c3ccc(Cl)cc3)cs2)CC1,"inconclusive [activator, partial curve, poor fit]"
20,COc1ccc(CN2CCSCC2)c(OC)c1C,"inconclusive [activator, single point]"
21,Cc1c(Cl)cccc1NC(=S)NCCC(c1ccccc1)c1ccccc1,"inconclusive [activator, single point]"
